Data reported in paper PMC12136788.
The other results are listed elsewhere or left out.

T1: UNK ZnF1-3 (human, UniProt Q9C0B0 31-174)
T1 sequence: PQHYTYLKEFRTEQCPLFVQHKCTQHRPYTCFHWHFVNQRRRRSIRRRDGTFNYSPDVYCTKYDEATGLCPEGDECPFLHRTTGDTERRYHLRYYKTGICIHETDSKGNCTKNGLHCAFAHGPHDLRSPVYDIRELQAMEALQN

B1: chr18:56819859:56819860:+_ENSG00000166562_ENST00000588875|hu_mus|FALSE|FALSE (ssRNA)
RNA: GGGAGUUCUACAGUCCGACGAUCAACCUUGAUUACUCUGUGAACUAUCGGAAUGUCUCUUCCUUCAACCUUAAAAACAACUAUUUCACCAGCUCUGAUGGGGUCCUCCCGGAAAUUCGUGAGGAACAGCAGAUCUCCUCUGUGCAACAGAGGAUUGAGCAUCA
B2: chr9:15127005:15127006:-_ENSMUSG00000046111_ENSMUST00000161132|mus_hu|motif|central (ssRNA)
RNA: GGGAGUUCUACAGUCCGACGAUCUGGUAUAGAGCUCUGUAAUGAAAAUGAUCCAGAACUUGCAAAAAGCUCUGAUUCUCCGGGUUGAGAUAGUUUUUUGGUGAUUUUUGGAAUGUCUGUUUCAGCUGAAUUCUCAAAAUAUUUCAACAGAGGAUUGAGCAUCA
B3: chr7:112906983:112906984:-_ENSMUSG00000036862_ENSMUST00000078482|mus_mus|motif|central (ssRNA)
RNA: GGGAGUUCUACAGUCCGACGAUCUGGGGAGAUAACUGGAGUCCCUGGUGGUGCAUUUUCACGGAGCACAGCCUCACGGCGGGUUCUGGGAAAGCGGGGUCCACGCUCAGGCUCUCCCUGUAUUCCAACAACGACCACACCAGUCAACAGAGGAUUGAGCAUCA
B4: chr1:46159212:46159213:+_ENSG00000159596_ENST00000372025|hu_mus|hu_hu_hu_mus_True|38_88 (ssRNA)
RNA: GGGAGUUCUACAGUCCGACGAUCUCUGAUCCCUCCCAAGAAAGCUAGGAAACUGGCUCCAUAAGCCAUCUGAGUGAAAGCUAGGACGGGGAUAUAAGUUUUUGUCAUUACCAUGAGAAGUGGGGGAGCAGUAAAGGGGAUUAACAACAGAGGAUUGAGCAUCA
B5: 11582453_11582573_7118_3pUTR_ENSG00000205269_ENST00000379426|human|control|control (ssRNA)
RNA: GGGAGUUCUACAGUCCGACGAUCUGCACAAGUAUCUUAACUUUCAAGGCACUAAGGCUUCAUUUAGCUUUUAAAAUCUGCCUGUGAUUUACCAAAAGAUUCAUCAGUGGUCUGAGAGUUAACACAAUUUGAAAGUGAGACUUUCAACAGAGGAUUGAGCAUCA
B6: chr8:61654917:61654918:+_ENSG00000171316_ENST00000423902|hu_hu|motif|central (ssRNA)
RNA: GGGAGUUCUACAGUCCGACGAUCAUUCAUUGGAGUAUUAUUUGUAAGGCCUAAAUUUUGAUUCAUCCCUGUAUUGUUAACGGAUCCCUGAUUUAGGUUACUGUAAGGAUAUCGAGAAUACUGCCCUGAGUUGUUUAUAGUAGGCAACAGAGGAUUGAGCAUCA
B7: chr5:67074945:67074946:+_ENSMUSG00000029223_ENSMUST00000031131|mus_hu|FALSE|FALSE (ssRNA)
RNA: GGGAGUUCUACAGUCCGACGAUCUCGUCCAUCAAGUUCAUAGAGGUGGCCAUCCACGUUGUUAAACAGAAUAAAAUGGAAAUUCACCUUGUCAUCUACCCGACAUUGGCCUUCCUGUGCCACGGCAUCAUGGGCUGCCUGUAUCAACAGAGGAUUGAGCAUCA
B8: chr7:117451621:117451622:-_ENSMUSG00000038371_ENSMUST00000164759|mus_hu|FALSE|FALSE (ssRNA)
RNA: GGGAGUUCUACAGUCCGACGAUCAAUGUGAGGCAAUGUAAUGCCUUCACGAAAGUUAAAGUAAUCCAGUUACAAAAGAAGCACUGUGUAUAGUCUCAAAUAGCUGAAGGUACAAUGGGCUCCAUAUUUUACAAAGUACAAAAACAACAGAGGAUUGAGCAUCA
B9: chr2:5814250:5814251:-_ENSMUSG00000025816_ENSMUST00000102981|mus_hu|mus_mus_mus_hu_True|1_78 (ssRNA)
RNA: GGGAGUUCUACAGUCCGACGAUCUUCCUUUCCGGUUUCUGAAUUUCUGGUAGAACUGCACAGAAAGGUUUGAUAACUUCUAAAAAUUUGAUGCCCAUGGCUGCUGCUGGGGAGGCCCAGGGGGAAACCGCGGCCUCGCAGCUGCAACAGAGGAUUGAGCAUCA
B10: chr9:82769708:82769709:-_ENSMUSG00000032253_ENSMUST00000034787|mus_hu|motif|central (ssRNA)
RNA: GGGAGUUCUACAGUCCGACGAUCAAAAGUCUUUGCAGCUGAAGAAGUAGAUGGUUGCUCAGUGACAACUGGAUCGGCAACCACUCGGUUGCUUCUGGUUCGAACCACAGAACUAGAUUCUGUUUUACCGUUUAUCUGAGCAGCCAACAGAGGAUUGAGCAUCA
B11: chr19:12019223:12019224:+_ENSMUSG00000046139_ENSMUST00000061618|mus_hu|FALSE|FALSE (ssRNA)
RNA: GGGAGUUCUACAGUCCGACGAUCAGGGAAGGUAGGAAAGGCAUGUAGUGGAAAUGGUCAGUAGACAACGGUAGAGGGAAGCUAGGUAACAUCACUGGGGAACAGCUGGUGGAGCCUGGGGUUACAGCAUGGGAAGAAAUGGAGCAACAGAGGAUUGAGCAUCA
B12: chr22:19452774:19452775:-_ENSG00000070010_ENST00000399523|hu_hu|hu_hu_hu_mus_False|1_68 (ssRNA)
RNA: GGGAGUUCUACAGUCCGACGAUCCUUCUCAUUGUAGUUGAUAGCAAUCACAUCUCCAGUCGUCAGACAGGCAAAGUUUCUCAAUGCAUUUUCUAAUACCGCUUUAGGGUUGGUAAUAUCCAGGAAGUCUGGGCUCUGAGGUUGCAACAGAGGAUUGAGCAUCA
B13: 51747384_51747599_595_CDS_ENSMUSG00000008140_ENSMUST00000118515|mouse|control|control (ssRNA)
RNA: GGGAGUUCUACAGUCCGACGAUCCUCCAGGCGCUCAAUGAAGGCUGCAGUCUCGGGGCCUGGAGCAGUGCUGGGAGGCCGCAGCUGCACAGAUGUAUUGAACAGCUCCAGGUCCUCAUCUUCCACCUCGGAGCCCCGGCAGCCCAACAGAGGAUUGAGCAUCA
B14: chr5:145543945:145543946:-_ENSG00000133706_ENST00000545646|hu_hu|hu_hu_hu_mus_True|58_78 (ssRNA)
RNA: GGGAGUUCUACAGUCCGACGAUCCUGAACGGCCAGUGGUGGGAAAUAAUCAAGCCAAUGUUCUGCUUCAGAAAACUUUACUAUCUCGUCAUCAGAGAGCCCAAGGGAUUUCAUAAUGUCCCACUGGUACUUAGAAGAUCCUGCCAACAGAGGAUUGAGCAUCA

biological target: T1, UNK ZnF1-3; test: nsRBNS (natural sequence RNA bind-n-seq); RBNS binding buffer (assumed for nsRBNS): 25 mM Tris pH 7.5, 150 mM KCl, 3 mM MgCl2, 0.01% Triton X-100, 500 ug/ml BSA, 20 U/ml SUPERase-In, 4 C; UNK is unkempt and MSI1 is Musashi-1; names of the RNAs are library labels; protein concentration not given here; high values mean tight binding

Binder	binding signal
B1	0.758 enrichment R
B2	0.991 enrichment R
B3	0.757 enrichment R
B4	1.28 enrichment R
B5	0.722 enrichment R
B6	0.753 enrichment R
B7	1.27 enrichment R
B8	1.26 enrichment R
B9	0.976 enrichment R
B10	0.597 enrichment R
B11	2.31 enrichment R
B12	1.02 enrichment R
B13	0.788 enrichment R
B14	1.21 enrichment R
